Reference: paper PMC12592546
These are yes or no findings as the source states them, for the method shown. Binding seen in cells or lysates may run through a third protein. Some results given as binding are weak or reduced against the parent protein; the word gives no strength. For part of these data: Where a sequence is shown, tags or fusion partners need not be part of it.

By UniProt entry, the sequences of proteins in these tests, tags left out.
UniProt Q92830: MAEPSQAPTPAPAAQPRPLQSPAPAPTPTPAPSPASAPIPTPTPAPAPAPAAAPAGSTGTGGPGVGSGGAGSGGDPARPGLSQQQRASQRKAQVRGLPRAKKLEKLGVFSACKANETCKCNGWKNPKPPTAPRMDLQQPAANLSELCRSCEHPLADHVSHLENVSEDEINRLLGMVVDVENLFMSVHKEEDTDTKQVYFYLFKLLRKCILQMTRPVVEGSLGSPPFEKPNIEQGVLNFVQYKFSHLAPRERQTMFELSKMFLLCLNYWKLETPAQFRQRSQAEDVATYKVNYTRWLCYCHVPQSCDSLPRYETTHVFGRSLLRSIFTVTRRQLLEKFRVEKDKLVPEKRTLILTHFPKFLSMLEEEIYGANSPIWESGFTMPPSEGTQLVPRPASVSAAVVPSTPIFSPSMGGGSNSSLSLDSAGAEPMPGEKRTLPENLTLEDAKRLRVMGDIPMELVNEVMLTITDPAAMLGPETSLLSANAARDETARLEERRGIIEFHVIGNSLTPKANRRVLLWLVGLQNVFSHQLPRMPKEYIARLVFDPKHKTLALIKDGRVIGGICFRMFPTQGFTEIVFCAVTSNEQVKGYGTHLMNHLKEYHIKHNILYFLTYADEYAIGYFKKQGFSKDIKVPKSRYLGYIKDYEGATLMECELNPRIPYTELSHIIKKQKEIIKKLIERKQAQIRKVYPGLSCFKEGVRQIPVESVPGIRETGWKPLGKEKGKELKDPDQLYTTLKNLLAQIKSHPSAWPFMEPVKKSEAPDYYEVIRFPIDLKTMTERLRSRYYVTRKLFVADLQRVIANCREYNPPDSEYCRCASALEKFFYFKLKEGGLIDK
UniProt Q06609: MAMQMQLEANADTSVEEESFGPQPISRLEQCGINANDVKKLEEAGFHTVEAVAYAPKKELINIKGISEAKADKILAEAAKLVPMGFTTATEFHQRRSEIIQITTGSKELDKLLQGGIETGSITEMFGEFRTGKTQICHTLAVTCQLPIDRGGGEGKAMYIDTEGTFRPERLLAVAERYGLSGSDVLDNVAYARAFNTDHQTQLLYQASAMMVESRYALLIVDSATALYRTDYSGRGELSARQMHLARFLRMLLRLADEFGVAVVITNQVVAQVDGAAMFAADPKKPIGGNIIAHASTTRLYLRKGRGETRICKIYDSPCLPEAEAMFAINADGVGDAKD

B1: serine/arginine-rich splicing factor 11 (SRSF11) (protein, UniProt Q05519 1-484)
chain: MSNTTVVPSTAGPGPSGGPGGGGGGGGGGGGTEVIQVTNVSPSASSEQMRTLFGFLGKIDELRLFPPDDSPLPVSSRVCFVKFHDPDSAVVAQHLTNTVFVDRALIVVPYAEGVIPDEAKALSLLAPANAVAGLLPGGGLLPTPNPLTQIGAVPLAALGAPTLDPALAALGLPGANLNSQSLAADQLLKLMSTVDPKLNHVAAGLVSPSLKSDTSSKEIEEAMKRVREAQSLISAAIEPDKKEEKRRHSRSRSRSRRRRTPSSSRHRRSRSRSRRRSHSKSRSRRRSKSPRRRRSHSRERGRRSRSTSKTRDKKKEDKEKKRSKTPPKSYSTARRSRSASRERRRRRSRSGTRSPKKPRSPKRKLSRSPSPRRHKKEKKKDKDKERSRDERERSTSKKKKSKDKEKDRERKSESDKDVKQVTRDYDEEEQGYDSEKEKKEEKKPIETGSPKTKECSVEKGTGDSLRESKVNGDDHHEEDMDMSD
B2: HA-RAD52 (protein, UniProt P43351 1-418)
chain: MSGTEEAILGGRDSHPAAGGGSVLCFGQCQYTAEEYQAIQKALRQRLGPEYISSRMAGGGQKVCYIEGHRVINLANEMFGYNGWAHSITQQNVDFVDLNNGKFYVGVCAFVRVQLKDGSYHEDVGYGVSEGLKSKALSLEKARKEAVTDGLKRALRSFGNALGNCILDKDYLRSLNKLPRQLPLEVDLTKAKRQDLEPSVEEARYNSCRPNMALGHPQLQQVTSPSRPSHAVIPADQDCSSRSLSSSAVESEATHQRKLRQKQLQQQFRERMEKQQVRVSTPSAEKSEAAPPAPPVTHSTPVTVSEPLLEKDFLAGVTQELIKTLEDNSEKWAVTPDAGDGVVKPSSRADPAQTSDTLALNNQMVTQNRTPHSVCHQKPQAKSGSWDLQTYSADQRTTGNWESHRKSQDMKKRKYDPS
B3: HA-RAD52^△Ex10 (protein, UniProt P43351)
chain: MSGTEEAILGGRDSHPAAGGGSVLCFGQCQYTAEEYQAIQKALRQRLGPEYISSRMAGGGQKVCYIEGHRVINLANEMFGYNGWAHSITQQNVDFVDLNNGKFYVGVCAFVRVQLKDGSYHEDVGYGVSEGLKSKALSLEKARKEAVTDGLKRALRSFGNALGNCILDKDYLRSLNKLPRQLPLEVDLTKAKRQDLEPSVEEARYNSCRPNMALGHPQLQQVTSPSRPSHAVIPADQDCSSRSLSSSAVESEATHQRKLRQKQLQQQFRERMEKQQVRVSTPSAEKSEKTLEDNSEKWAVTPDAGDGVVKPSSRADPAQTSDTLALNNQMVTQNRTPHSVCHQKPQAKSGSWDLQTYSADQRTTGNWESHRKSQDMKKRKYDPS

Legend:
[1] = molecular target: K(lysine) acetyltransferase 2A (KAT2A) (human (endogenous in Huh7 and LM3)) (UniProt Q92830); test: co-IP; endogenous proteins in Huh7 and LM3 cells; IP with anti-SRSF11 and blot for KAT2A, or IP with anti-KAT2A and blot for SRSF11
[2] = molecular target: RAD51 (endogenous) (human (endogenous in Huh7 and LM3)) (UniProt Q06609); test: co-IP; Huh7 and LM3 cells overexpressing HA-RAD52 or HA-RAD52^△Ex10; IP with anti-HA or anti-RAD51; HA-RAD52^△Ex10 also with or without Flag-SRSF11

Binder	binding [1]	binding [2]
B1	binds	–
B2	–	binds
B3	–	no binding
